The values that follow come from the supplement of paper PMC10037445.

In assay [1] the test system is RAW-Dual. The assay can be described thus: IRF Lucia reporter activity, fold change vs agonist alone; cytotoxicity flag (confluency mask): not cytotoxic; higher = enhanced IRF activity. The gist of the method:
(§1)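 Supernatant from RAW-Dual macrophages was read after 20 hours for IRF by QuantiLuc luminescence and for NF-κB by QuantiBlue absorbance at 620 nm. The cells (50,000 cells/well in DMEM, 384-well plates, 37 °C, 5% CO2) had received 50 nL of library stock by pin tool and, 1 h later, a PRR agonist. Reporter activity is expressed relative to agonist-alone wells as fold change, and wells were flagged cytotoxic if IncuCyte confluency was under 70% of agonist controls in both mask sets.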

In assay [2] the test system is RAW-Dual. Briefly: IRF Lucia reporter activity, fold change vs agonist alone; higher = enhanced IRF activity. The following applies: agonist: MPLA (TLR4) […]. An outline of the steps: as §1
Assay [3] relates to RAW-Dual. The assay can be described thus: IRF Lucia reporter activity, fold change vs agonist alone; cytotoxicity flag (confluency mask): cytotoxic (confluency <70% of control); higher = enhanced IRF activity. An outline of the steps: as §1
The mark [4] stands for this setting: agonist: 3'3'-cGAMP (STING) 10 ug/mL.
Where [5] appears, read: library stock concentration (final ~1000-fold dilution): 10 mM, cytotoxicity flag (confluency mask): not cytotoxic.

± gives the standard deviation of the averaged measurements. Over roughly 2,900 compounds, “IRF Lucia reporter activity, fold change vs agonist alone” has its median near 0.9; the highest 2% begin near 2.8. This is one part of the list.

Take `CC(N)C1CCC(C(=O)Nc2ccncc2)CC1.Cl.Cl` (stereo not drawn) (library stock concentration (final ~1000-fold dilution): 10 mM): the “IRF Lucia reporter activity” value in assay [1] (setting [4]) came out at 0.926; in assay [1] (agonist: LPS (TLR4) 0.1 ug/mL) it was 0.81.

On to `CC(N)C1CCC(C(=O)Nc2ccncc2)CC1.Cl.Cl` (stereo not drawn), for which, in assay [2] (setting [5]), the “IRF Lucia reporter activity” value amounted to 0.773.

Take `CN1CCC(=C2c3ccccc3C=Cc3ccccc32)CC1`: in assay [2] (setting [5]), the “IRF Lucia reporter activity” value amounted to 1.15.

Turning to `CN1CCC(=C2c3ccccc3C=Cc3ccccc32)CC1` (library stock concentration (final ~1000-fold dilution): 10 mM), the “IRF Lucia reporter activity” value in assay [1] (setting [4]) is 0.396; in assay [1] (agonist: LPS (TLR4) 0.1 ug/mL) it was 1.49.

Consider `COc1cc2c(Nc3ccc(NC(=O)c4ccccc4)cc3)ncnc2cc1OCCCN1CCOCC1` (library stock concentration (final ~1000-fold dilution): 10 mM), for which the “IRF Lucia reporter activity” value in assay [1] (setting [4]) came to 0.0797; in assay [1] (agonist: LPS (TLR4) 0.1 ug/mL) it was 0.792.

For `COc1cc2c(Nc3ccc(NC(=O)c4ccccc4)cc3)ncnc2cc1OCCCN1CCOCC1`, the “IRF Lucia reporter activity” value in assay [2] (setting [5]) worked out at 0.955.

For the compound `CC(=O)Nc1ccc(C(=O)Nc2ccccc2N)cc1`, the “IRF Lucia reporter activity” value in assay [2] (setting [5]) came to 0.418.

Take `CC(=O)Nc1ccc(C(=O)Nc2ccccc2N)cc1` (library stock concentration (final ~1000-fold dilution): 10 mM): the figures for the “IRF Lucia reporter activity” value in assay [1] (setting [4]) and in assay [1] (agonist: LPS (TLR4) 0.1 ug/mL) were 0.557 and 0.424, respectively.

Regarding `CC(C)(C)C(O)/C(=C\c1ccc(Cl)cc1)n1cncn1` (stereo not drawn) (library stock concentration (final ~1000-fold dilution): 10 mM), the entries for the “IRF Lucia reporter activity” value in assay [1] (setting [4]) and in assay [1] (agonist: LPS (TLR4) 0.1 ug/mL) were 1.26 and 0.914, respectively.

As for `CC(C)(C)C(O)/C(=C\c1ccc(Cl)cc1)n1cncn1` (stereo not drawn), the “IRF Lucia reporter activity” value in assay [2] (setting [5]) turned out to be 1.14.

On to `CCn1c2ccccc2c2cc(CNCc3ccccc3OC)ccc21.Cl` (library stock concentration (final ~1000-fold dilution): 10 mM), for which the results for the “IRF Lucia reporter activity” value in assay [3] (setting [4]) and in assay [3] (agonist: LPS (TLR4) 0.1 ug/mL) were 0.801 and 1.18, respectively.

For `Cl.O=c1[nH]c(C2CCCN2)nc2c1oc1ccc(Cl)cc12` (stereo not drawn), the “IRF Lucia reporter activity” value in assay [2] (library stock concentration (final ~1000-fold dilution): 10 mM water, cytotoxicity flag (confluency mask): not cytotoxic) worked out at 1.49.

For `Cl.O=c1[nH]c(C2CCCN2)nc2c1oc1ccc(Cl)cc12` (stereo not drawn) (library stock concentration (final ~1000-fold dilution): 10 mM water), the “IRF Lucia reporter activity” value in assay [1] (setting [4]) was 1.41; in assay [1] (agonist: LPS (TLR4) 0.1 ug/mL) it was 1.19.

For the compound `O=C(/C=C/c1ccc(O)c(O)c1)OC(Cc1ccc(O)c(O)c1)C(=O)O` (stereo not drawn), the “IRF Lucia reporter activity” value in assay [2] (setting [5]) came to 1.16 ± 0.35.

`O=C(/C=C/c1ccc(O)c(O)c1)OC(Cc1ccc(O)c(O)c1)C(=O)O` (stereo not drawn) (library stock concentration (final ~1000-fold dilution): 10 mM): the “IRF Lucia reporter activity” value in assay [1] (setting [4]) is 0.616 ± 0.12; in assay [1] (agonist: LPS (TLR4) 0.1 ug/mL), 1.01 ± 0.053.

In the case of `COc1cc2c(NC3CCN(C(C)C)CC3)nc(C3CCCCC3)nc2cc1OCCCN1CCCC1` (library stock concentration (final ~1000-fold dilution): 10 mM), the “IRF Lucia reporter activity” value was 0.154 in assay [3] (setting [4]) and 0.0189 in assay [3] (agonist: LPS (TLR4) 0.1 ug/mL).

In the case of `O=C(Nc1ccccc1)Nc1ccc(-c2ccc(C(=O)C3CCCC3C(=O)O)cc2)cc1` (stereo not drawn), in assay [2] (setting [5]), the “IRF Lucia reporter activity” value is 1.22.

On to `O=C(Nc1ccccc1)Nc1ccc(-c2ccc(C(=O)C3CCCC3C(=O)O)cc2)cc1` (stereo not drawn) (library stock concentration (final ~1000-fold dilution): 10 mM), for which the “IRF Lucia reporter activity” value is 1.15 in assay [1] (setting [4]) and 1.07 in assay [1] (agonist: LPS (TLR4) 0.1 ug/mL).

As to `O=c1[nH]nc2c3c(cccc13)N=C(CN1Cc3ccccc3C1)N2` (library stock concentration (final ~1000-fold dilution): 10 mM), the “IRF Lucia reporter activity” value in assay [1] (setting [4]) worked out at 0.653; in assay [1] (agonist: LPS (TLR4) 0.1 ug/mL), 0.666.

`C#Cc1cccc(Nc2ncnc3cc(OC)c(OCCCCCCC(=O)NO)cc23)c1`: in assay [2] (library stock concentration (final ~1000-fold dilution): 10 mM, cytotoxicity flag (confluency mask): cytotoxic (confluency <70% of control)), the “IRF Lucia reporter activity” value was 0.26.

With `C#Cc1cccc(Nc2ncnc3cc(OC)c(OCCCCCCC(=O)NO)cc23)c1` (library stock concentration (final ~1000-fold dilution): 10 mM), the results for the “IRF Lucia reporter activity” value in assay [3] (setting [4]) and in assay [3] (agonist: LPS (TLR4) 0.1 ug/mL) were 0.117 and 0.392, respectively.

Consider `O=S(=O)(c1ccc2c(c1)C(=NO)c1cc(S(=O)(=O)N3CCCCC3)ccc1-2)N1CCCCC1` (library stock concentration (final ~1000-fold dilution): 10 mM), for which the “IRF Lucia reporter activity” value in assay [1] (setting [4]) amounted to 0.405; in assay [1] (agonist: LPS (TLR4) 0.1 ug/mL), 0.478.

As for `CS(=O)(=O)n1cc2c(n1)CN(C1COC(c3cc(F)ccc3F)C(N)C1)C2` (stereo not drawn) (library stock concentration (final ~1000-fold dilution): 10 mM), the “IRF Lucia reporter activity” value is 0.908 in assay [1] (setting [4]) and 1.22 in assay [1] (agonist: LPS (TLR4) 0.1 ug/mL).

In the case of `CCn1c2ccccc2c2cc(-n3nncc3-c3ccccc3)ccc21` (library stock concentration (final ~1000-fold dilution): 10 mM), the “IRF Lucia reporter activity” value in assay [1] (setting [4]) came to 0.0459; in assay [1] (agonist: LPS (TLR4) 0.1 ug/mL) it was 2.19.

Regarding `COc1cccc2c1c(O)c(C(=O)N(C)c1ccc(C(F)(F)F)cc1)c(=O)n2C` (library stock concentration (final ~1000-fold dilution): 10 mM), the “IRF Lucia reporter activity” value in assay [1] (setting [4]) is 1.25; in assay [1] (agonist: LPS (TLR4) 0.1 ug/mL), 1.07.

For `O=C(Nc1cccc(C(F)(F)F)c1)c1cccc2cc(Oc3cc(CO)ncn3)ccc12` (library stock concentration (final ~1000-fold dilution): 10 mM), the “IRF Lucia reporter activity” value was found to be 0.798 in assay [1] (setting [4]) and 1.03 in assay [1] (agonist: LPS (TLR4) 0.1 ug/mL).
